Results: PubChem BioAssay AID720542 (National Center for Advancing Translational Sciences (NCATS), 2013)
The whole screen tested about 360,000 compounds, of which about 740 (0.21%) were called active. Inconclusive means that the source gave no clear call. Such entries were picked first, then a sample of the others. Calls follow the shape of the dose curve; as a rule, active = well fitted inhibition curve with a large enough effect; inconclusive = small, poorly fitted or top-dose-only effect; inactive = no such curve, though single readings can be large or run the other way. Potencies of inconclusive entries are left out as doubtful fits.

test system: Plasmodium falciparum AMA1 (3D7) - RON2 peptide interaction; test: qHTS for Inhibitors of AMA1-RON; Towards Development of Antimalarial Drug Lead: Primary Screen; conditions: AlphaScreen AMA1-biotinylated RON2 peptide binding; activity change, negative = inhibition: at 58.2 µM (top of the series) unless noted; also: nearly all actives have a fitted effect of over 45% in size;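 as to activity change, negative = inhibition: 0% = vehicle wells and -100% = peptide control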
Text: Plasmodium, the causative agent of malaria, is one of the world's deadliest parasitic diseases. Currently there is no vaccine available and there is widespread resistance to common anti-malarial drugs. This warrants novel, alternative approaches for developing improved therapy. During infection, one such essential interaction is between two parasite proteins, the apical membrane antigen1 (AMA1) that is translocated onto the merozoite surface and the rhoptry neck protein 2 (RON2), which is transferred to the red blood cells (RBC) membrane during invasion (Besteiro et.al., 2009). Recently, the Miller lab has shown that the interaction between AMA1 and RON2 is essential for junction formation of the parasite with the host cell (Srinivasan et.al., 2011). The binding of the RON2 peptide to the hydrophobic pocket in AMA triggers the formation of the moving junction which provides a firm anchor for the parasite to pull itself into the RBC using its actin-myosin motor; an irreversible step that commits the parasite for invasion. Only one AMA1 and RON2 genes exists in Plasmodium and there are no alternate pathways. Moreover, the region corresponding to RON2 peptide is conserved in all P. falciparum isolates for which sequences are available. The key residues in the AMA1 hydrophobic pocket that binds RON2 are also conserved and indicate a functional constraint governing this essential step in invasion since a short RON2 peptide (RON2L) corresponding to the binding region on AMA1 is sufficient to compete with the native RON2 protein and inhibits invasion (Tonkin et.al, 2011). Therefore, developing small molecule inhibitors of this interaction offers a promising target opening a new arena for anti-malarial therapeutics drug design.
In collaboration with the Miller lab, a quantitative High Throughput Screen using the AlphScreen technology was developed using a recombinant his-tagged AMA1 and a biotinylated RON2 peptide. This fluorescent screen was assayed against the NIH Molecular Libraries Small Molecule Repository (MLSMR). Inhibition of this protein-protein interaction is the desired outcome of this assay. However, due the limitations of this AlphaScreen assay, a large number of artifacts were observed. An AlphaScreen counterscreen was run to identify the true inhibitors, triage compound activity, and weed out false positives.
NIH Chemical Genomics Center [NCGC]
NIH Molecular Libraries Probe Centers Network [MLPCN]
Assay Submitter (PI): Louis Miller, National Institute of Allergy and Infectious Disease (NIAID)
Two microliters of his-tagged AMA1 3D7 allele protein (final concentration 25 nM) was dispensed into a 1,536-well assay plate. Small molecules and positive control peptides were pin-transferred (23 nL or 46 nL) via Kalypsys pin-tool equipped with a 1,536-pin array, resulting in final compound and peptide concentration ranges of 91.5 nM - 57.2 µM, and 15.6 nM - 2.00 µM, respectively. Unlabeled RON2 peptide or R1 peptide ([…]) that specifically binds the 3D7 AMA1 was used as a positive control that inhibited the binding of RON2L to AMA1. After 15 minutes incubation, 1 uL of biotinylated RON2 peptide (final concentration 25 nM) or buffer were dispensed and the assay plate was incubated for an additional 30 minutes at room temperature and protected from light. This was followed by an addition of 1 uL mixture of donor and acceptor beads (10 ug/mL final concentrations for each). The plates were incubated for 30 min at room temperature and read using the EnVision(R) plate reader (PerkinElmer). Maximum inhibition response was normalized to the positive control signal while no inhibition response was normalized to the DMSO treated wells.
Potency is read from the fitted curve at half-maximal effect; tags tell the direction and shape of the fitted curve.

Structure (SMILES) | Potency | activity change, negative = inhibition
CCC(=O)N1CCN(c2ccccc2NC(=O)c2ccc([N+](=O)[O-])o2)CC1 | inactive | –
CC(=O)c1ccc(-c2ccc(C(=O)N3CCCc4ccccc43)o2)cc1 | inconclusive [inhibitor, single point] | –
CCOC(=O)c1c(C)oc2c1c(C(c1ccncc1)N1CCOCC1)c(O)c1ccccc12 (centres undefined) | inconclusive [inhibitor, single point] | –
O=C(N/C=N/OCc1cccc(C(F)(F)F)c1)N1OC[C@@H]2COc3ccc4ccccc4c3[C@@H]21 | inconclusive [inhibitor, full curve, poor fit] | –
O=C1ON=C(c2ccccc2)/C1=C/c1ccc(-c2ccccc2[N+](=O)[O-])o1 | inconclusive [inhibitor, partial curve] | –
CCCCCCCCN1C(=O)[C@H](CC(=O)NCc2ccc(OC)c(OC)c2)C[C@@]2(C(=O)OCC)CCCC=C12 | inconclusive [inhibitor, single point] | –
COc1ccc(CNc2nc3ccccc3n2CCN2CCCCC2)c(OC)c1 | inconclusive [inhibitor, partial curve, poor fit] | –
COc1cc(C)ccc1OCc1cc(C(=O)N2CCC(c3ccc(F)cc3)C2)no1 (centres undefined) | inactive | –
Cc1ccc(N2C(=O)/C(=C\c3ccco3)SC2=S)cc1 | inconclusive [inhibitor, partial curve] | –
CCOc1ccc(N=Cc2ccc(N(C)C)cc2)c(O)c1 | inconclusive [inhibitor, partial curve] | –
O=C(Nc1cccc(C(F)(F)F)c1)C12CC3CC(CC(C3)C1)C2 | inconclusive [inhibitor, partial curve] | –
CCN(CC)CCCNC(=O)c1cc(Nc2ccc(OC)cc2)nc2ccccc12 | inactive | –
Cn1c(=O)c2cn(-c3cccc4ccccc34)cc2n(C)c1=O | inconclusive [inhibitor, full curve, poor fit] | –
CC1(c2ccccc2)CC(C)(C)N2C(=O)C(=O)c3cccc1c32 (centres undefined) | inconclusive [inhibitor, partial curve] | –
CCCCCOc1ccc(Cl)cc1CN1CCOCC1 | inconclusive [inhibitor, single point] | –
Cc1ccc(/C=C2\C(=O)Nc3ccccc32)o1 | inactive | –
COc1ccc(C(c2nnnn2Cc2ccc(F)cc2)N2CCN(c3ccc(OC)cc3)CC2)cc1 (centres undefined) | inconclusive [inhibitor, single point] | –
CCn1c(SCc2cccc(F)c2)nc2c(c1=O)SCC2 | inconclusive [inhibitor, single point] | –
O=C(O)/C=C\C(=O)Nc1ccc(N2CCN(c3ccc(Cl)c(Cl)c3)CC2)cc1 | inconclusive [inhibitor, partial curve] | –
Cc1ccc(S(=O)(=O)N2CCC(C(=O)Nc3ccc4c(c3)COC4=O)CC2)cc1 | – | inconclusive: 13.3% [inhibitor]
COc1ccc(Cl)cc1NC(=O)C(C)N1CCN(C/C=C/c2ccccc2)CC1 (centres undefined) | inconclusive [inhibitor, single point] | –
Cc1ccc(S(=O)(=O)N(C)CC(=O)Nc2ccc(C)cn2)cc1 | inactive | –
CS(=O)(=O)c1ccccc1-c1nnc(NC(=O)c2ccc3ncsc3c2)o1 | inactive | –

Structure (SMILES) | Potency | activity change, negative = inhibition
COc1ccc(OC)c(C2=CC(=O)C[C@H](c3ccc(F)cc3)C2)c1 | inconclusive [inhibitor, full curve, poor fit] | –
CN(C)CC/C=C1/c2ccc(F)cc2Sc2ccc(Cl)cc21 | inconclusive [inhibitor, partial curve] | –
c1ccc(C2c3c(ccc4ccccc34)Oc3ncn4nc(-c5ccco5)nc4c32)cc1 (centres undefined) | inactive | –
Cc1c(C)c2c(OCC(=O)NCc3ccncc3)cc3c(c2oc1=O)CCC(C)(C)O3 | inactive | –
CCCCn1c(N)c(N(C(=O)CSc2nnc(C)n2-c2ccccc2)C2CCCC2)c(=O)[nH]c1=O | inactive | –
Fc1ccc(-[n+]2nc(Nc3ccccc3)sc2-c2c3ccccc3cc3ccccc23)cc1 | inconclusive [inhibitor, partial curve] | –
CC(Cc1ccc(O)c(O)c1)C(C)Cc1ccc(O)c(O)c1 (centres undefined) | inconclusive [inhibitor, partial curve] | –
CC(C)(C)OC(=O)C[C@H]1C/C=C\C[C@@H](CC(=O)NCCO)C(=O)N[C@H](Cc2ccccc2)COC1=O | inactive | –
O=C(CN(Cc1cccs1)C(=O)CSc1nnc(COc2ccccc2)o1)NC1CCCCC1 | inactive | –
O=C1CC(c2cccc(Cl)c2)c2cc3c(cc2N1)CCC3 (centres undefined) | inconclusive [inhibitor, single point] | –
Cc1csc(NC(=O)/C=C/c2ccc(C)o2)n1 | inactive | –
Cc1csc(=O)n1CCC(=O)OCC(=O)c1ccc(Br)cc1 | inconclusive [inhibitor, single point] | –
CCCCn1c(-c2ccccc2)cnc1SCC(=O)NCCc1ccc(OC)c(OC)c1 | inconclusive [inhibitor, single point] | –
O=C(CSc1nnc(-c2ccccc2)c(-c2ccccc2)n1)NC1CCS(=O)(=O)C1 (centres undefined) | inactive | –
CC(C)c1ccc(S(=O)(=O)N2CCN(C(=O)c3ccc(N4CCCC4)c([N+](=O)[O-])c3)CC2)cc1 | inconclusive [inhibitor, partial curve] | –
O=C1C2=C(Nc3ccccc3SC2c2ccco2)c2ccccc21 (centres undefined) | inconclusive [inhibitor, single point] | –
COc1cccc(/C=N/NC(=O)c2cc3cc([N+](=O)[O-])ccc3s2)c1O | inactive | –
Cc1ccc(C)n1/N=C1/NC(=O)CS1 | inconclusive [inhibitor, single point] | –
Cc1ccc(C=C2C(=O)c3ccccc3C2=O)s1 | inconclusive [inhibitor, single point] | –
CC1Cc2ccccc2N1C(=O)CSc1ncc(-c2ccc(F)cc2)n1C (centres undefined) | inconclusive [inhibitor, full curve] | –
CN1CCc2c(sc3nc(SCC(=O)N4CCOCC4)nc(N)c23)C1 | inactive | –
O=C(Nc1ccc(S(=O)(=O)Nc2ncccn2)cc1)c1cc([N+](=O)[O-])ccc1Cl | inconclusive [inhibitor, single point] | –
Cc1cccn2c(=O)c3cc(C(=O)NC4CCCCC4)c(=N)n(Cc4ccccc4)c3nc12 | inactive | –

Structure (SMILES) | Potency | activity change, negative = inhibition
CCn1c(COc2cccc(OC)c2)nnc1SCC(=O)Nc1ccccc1C(=O)OC | inactive | –
CN(C)c1ccc(C(=O)N(Cc2ccccc2)Cc2ccccc2)cc1 | inconclusive [inhibitor, single point] | –
Cc1ccc(-n2nc(C)c(Sc3ccccc3[N+](=O)[O-])c2N)cc1 | inconclusive [inhibitor, partial curve] | –
Cc1ccccc1-n1c(O)c(C=Nc2ccc(N(C)C)cc2)c(=O)[nH]c1=O | inconclusive [inhibitor, partial curve] | –
COC(=O)c1ccccc1NC(=O)N1CCN(c2ccc(OC)cc2)CC1 | inconclusive [inhibitor, partial curve] | –
CC(C)OCCCNC(=O)c1ccc(NS(C)(=O)=O)cc1 | inactive | –
COc1ccc2cc(CN(Cc3cccnc3)Cc3nnnn3Cc3ccccc3)c(=O)[nH]c2c1 | inactive | –
CC(C)N(Cc1ccccc1)C(=O)/C=C/c1ccccc1[N+](=O)[O-] | inconclusive [inhibitor, partial curve] | –
c1ccc(CCC2Cc3ccccc3N2)cc1 (centres undefined) | inconclusive [inhibitor, partial curve] | –
CCCN(CC(=O)Nc1ccccc1OC)C(=O)c1ccncc1 | inactive | –
Cc1nn2c(Nc3ccccc3)c3c(nc2c1-c1ccccc1)CCC3 | – | inactive: 14.8% [at 11.6 µM]
O=[N+]([O-])c1cc(C(F)(F)F)ccc1Sc1ccc2ccccc2n1 | inconclusive [inhibitor, partial curve] | –
Cc1ccc(C)c(OCCn2cc(/C=C(\C#N)C(=O)NCC3CCCO3)c3ccccc32)c1 (centres undefined) | inactive | –
CN(C)CCC#CC(O)(c1ccccc1)c1ccccc1 | inactive | –
O=C(CSc1nc(-c2ccccc2)cs1)Nc1ccccc1[N+](=O)[O-] | inconclusive [inhibitor, partial curve] | –
Cc1onc(-c2ccncc2)c1C(=O)O | inactive | –
Cc1cccc(C2c3[nH]c4ccccc4c3CCN2C(=O)c2noc3c2CCCC3)n1 (centres undefined) | inconclusive [inhibitor, single point] | –
C[C@]12c3[nH]c4cc(-c5ccco5)ccc4c3CCN1C(=O)[C@@H](CC(=O)NCCC1=CCCCC1)C[C@@H]2C(=O)N1CCCCC1 | inconclusive [inhibitor, partial curve] | –
CCOc1ccc(CCNC(=O)CS(=O)(=O)Cc2nc(-c3ccccc3F)oc2C)cc1 | inactive | –
COc1ccc(/C=C/C(=O)c2cc3c(cc2N)OCO3)cc1 | inconclusive [inhibitor, single point] | –
Fc1ccc(OCCCn2ccnc2)cc1 | inconclusive [inhibitor, single point] | –
CN(CCO)c1ccc(C(C(=O)c2ccccc2)c2ccc(N(C)CCO)cc2)cc1 | inconclusive [inhibitor, single point] | –
COc1ccc(N2CCN(C(=O)CN(c3ccc(OC)cc3)S(=O)(=O)c3ccccc3)CC2)cc1 | inconclusive [inhibitor, single point] | –
